Experimental data taken from PubChem BioAssay (NCI).
“And” between values parts separate entries of the source, which are not always exact repeats. Equal values may be shown once.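 Exposure lasted 48 hours, with cells grown in 96-well plates and compounds tested at five concentrations. GI50 marks 50% less growth. TGI: total growth inhibition.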

Test system: NCI-H322M lung
Assay: NCI anticancer screen, dose series, 48 h

CCc1c(C)c(C#N)c(=S)n(C2OC(CO)C(O)C(O)C2O)c1C (centres undefined)
TGI: > 100 µM

CCN1CSC(=S)N(CC)C1
TGI: > 100 µM

CCOC(=O)CC1NC(=O)CS1 (centres undefined)
TGI: > 100 µM

Cn1cnc2c(sc3nc4ccccc4n32)c1=N
TGI: > 100 µM

O=C(O)CSc1ncccc1[N+](=O)[O-]
TGI: > 100 µM

Cc1cc(-c2nnc3n2CCCCC3)c(C)n1-c1ccc(Cl)c(Cl)c1
GI50: 18.8 µM
TGI: 37.8 µM

COc1ccc(CN2c3ccccc3CCc3ccccc32)cc1F
GI50: 0.617 µM
TGI: > 100 µM

CC(=O)N1CCN(C23OC4(N5CCN(C(C)=O)CC5)C5C6CC(C7C6C4C72)C53)CC1 (centres undefined)
TGI: > 100 µM

FCc1ncc(-c2ccc(C(F)(F)F)cc2)c(NC2CCCCCC2)n1
GI50: > 10 µM
TGI: > 10 µM

COc1cc(C2SCC(=O)N2c2ccc(Oc3ccc(Cl)cc3)c(Cl)c2)cc(OC)c1OC (centres undefined)
TGI: 31.4 µM

Nc1nc(CCC(=O)Nc2cccc(C(F)(F)F)c2)cc(-c2ccc3ccccc3c2)n1
TGI: > 100 µM

C[C@]12CC[C@@H]3c4ccc(OC(=O)c5ccccc5)cc4CC[C@H]3[C@@H]1CC[C@@H]2Oc1c2ccccc2nc2ccccc12
TGI: > 50 µM

CC(=O)O[C@H]1C(=O)[C@@]2(C)[C@H]([C@H](OC(=O)c3ccccc3)[C@]3(O)C[C@H](OC(=O)[C@H](O)[C@@H](NC(=O)CC(C)(C)C)c4ccccc4)C(C)=C1C3(C)C)C1(OC(C)=O)CO[C@@H]1C[C@@H]2O (some centres undefined)
TGI: > 10 µM

CC(=O)OCC=C(CCl)CCC(Br)C(C)(C)Br (mixture of isomers)
TGI: > 10 µM

CCOC(=O)C(CS)NC(=O)CCCCCCCC(=O)NC(CS)C(=O)OCC (centres undefined)
TGI: > 100 µM

O=C(OC[C@H]1O[C@@H](OC(=O)c2cc(O)c(O)c(O)c2)[C@H](OC(=O)c2cc(O)c(O)c(O)c2)[C@@H](OC(=O)c2cc(O)c(O)c(O)c2)[C@@H]1OC(=O)c1cc(O)c(O)c(O)c1)c1cc(O)c(O)c(O)c1
TGI: 54.5 µM

CCOc1cc(C2CC(c3ccc(NS(=O)(=O)c4cc([N+](=O)[O-])ccc4C)cc3)=NN2)ccc1O (centres undefined)
TGI: 68.1 µM

O=Cc1ccc(-c2cccs2)s1
TGI: > 100 µM

Nc1ccc(S(=O)(=O)NCc2nccs2)cc1
TGI: 48.1 µM

Nc1cc(N2CCCC2)nc(=O)n1Cc1ccccc1
TGI: > 100 µM

C/C(O)=C/c1nc2ccc([N+](=O)[O-])cc2nc1/C=C(/C)O
TGI: > 100 µM

Cc1nn(-c2ccccc2)c(-c2ccccc2[N+](=O)[O-])c1CC#N
TGI: > 100 µM

COc1cc(C2S/C(=C/c3ccccc3)C(=O)N2c2ccc(Cl)c(Cl)c2)cc(OC)c1OC (centres undefined)
TGI: > 100 µM

COc1ccc(-c2cn[nH]c2-c2cc(OC)c3c(c2)OCCO3)cc1
GI50: 1.27 µM
TGI: > 100 µM

COc1cc2nc(-c3ccc(C(F)(F)F)cc3)cc(OCCCN3CCCCC3)c2cc1OC
GI50: 8.7 µM
TGI: 21.3 µM

BrC1(Br)C2/C=C\CCCCC21 (centres undefined)
TGI: > 100 µM

COc1cccc(-c2cc(=O)c3ccc(C)nc3[nH]2)c1
TGI: > 100 µM

CCN(CC)CCNc1n[n+]([O-])c2ccccc2[n+]1[O-]
TGI: 54.3 µM

C=C=C(C(=O)OC)S(=O)c1ccc([N+](=O)[O-])cc1[N+](=O)[O-] (centres undefined)
TGI: > 100 µM

O=[N+]([O-])c1ccc2c(c1)[O][Sn]([I])([I])[O]2
GI50: > 100 µM
TGI: > 100 µM

COC(=O)[C@@]12CCCC(=O)[C@@H]1[C@H]1CCCC[C@H]12
TGI: > 100 µM

CC(C)Oc1cc(O)c2c(c1)OCC=C2CCC(=O)O
TGI: > 100 µM

COc1ccc(Cn2c(Cl)c(/C=C3/C(=O)Nc4ccccc43)c3cc(OC)c(C)cc32)cc1
GI50: 8.74 µM
TGI: > 100 µM

C[C-](O)O.O/C(=C\[C-](O)c1ccccc1)c1ccccc1.O/C(=C\[C-](O)c1ccccc1)c1ccccc1.[Nd+3] (centres undefined)
GI50: 11.3 µM
TGI: 54.4 µM

CC(=O)OC1[C@H]2c3cc4c(cc3CN3CCC(=C[C@@H]1O)C23)OCO4 (some centres undefined)
TGI: > 100 µM

CCc1ccc2c(c1)CC1(C2)Cc2cc3c(cc2C1)C(=O)CC3 (centres undefined)
TGI: 75.1 µM

OCC1OC(n2cnc3c(/C=C(/O)c4ccccc4)ncnc32)C(O)C1O (centres undefined)
TGI: > 100 µM

C[N+]1(C)C/C(=C\c2ccncc2)C(=O)/C(=C/c2ccncc2)C1
TGI: > 100 µM

CC(C)(C)NC(=O)[C@H]1C[C@H]2CCCC[C@H]2CN1C[C@@H](O)[C@H](Cc1ccccc1)NC(=O)[C@H](CC(N)=O)NC(=O)c1ccc2ccccc2n1
GI50: 15.4 µM
TGI: 32.1 µM

CC(=O)Oc1ccc(C2COc3cc(OC(C)=O)c(OC(C)=O)cc3C2)cc1 (centres undefined)
TGI: 71.6 µM

COc1ccc(C2CC(n3nnnc3-c3ccccc3)=NN2)cc1 (centres undefined)
GI50: 4.52 µM
TGI: > 100 µM

CC(=O)Nc1ccc(S(=O)(=O)NNC(=O)c2cccnc2Nc2ccc(Cl)cc2)cc1
GI50: > 100 µM
TGI: > 100 µM

O=C1c2cccc3cccc(c23)C(=O)N1CCCNOCCONCCCN1C(=O)c2cccc3cccc(c23)C1=O
TGI: > 100 µM

Cc1c(-c2ccccc2)c(C#N)c2nnc(C(N)=O)c(N)n12
TGI: > 100 µM

CCOc1c(Cl)cc(CNC(C)C(O)c2ccccc2)cc1OC (centres undefined)
GI50: 51.5 µM
TGI: > 100 µM

O=C1CCCN1CC#CCN1CCCC1
GI50: > 100 µM
TGI: > 100 µM

Cc1c2cc[n+](C)cc2c(C)c2c1[nH]c1ccc(O)c(OCC(F)(F)F)c12
TGI: 12.2 µM

C[C@]12CC[C@H](O)CC1=CC[C@@H]1[C@@H]2CC[C@]2(C)/C(=N/OCCN3CCCC3)CC[C@@H]12
TGI: 40.7 µM

N#C[C@@H]1C(n2ccc(N)nc2=O)O[C@H](CO)[C@H]1O (some centres undefined)
GI50: > 100 µM
TGI: > 100 µM

COc1cc(Cn2c(-c3nonc3N)nc3ccccc32)ccc1C
GI50: 2.45 µM
TGI: > 100 µM

c1cc(CNC2C3CCC(C3)C2c2c[nH]c3ccccc23)cc(CNC2C3CCC(C3)C2c2c[nH]c3ccccc23)c1 (centres undefined)
TGI: 2.73 µM

CCN(CC)CCCC(C)Nc1c2ccc(C)cc2nc2ccc(OC)cc12 (centres undefined)
GI50: 0.284 µM
TGI: 2.38 µM

CCCCOCn1c(=O)[nH]c(=O)c2cc(Br)ccc21
TGI: > 100 µM

Oc1ccccc1-c1nc2c3ccccc3c3ccccc3c2[nH]1
GI50: 7.57 µM
TGI: 21.1 µM

Cc1c(Cl)cccc1NC(=O)CC1C(=O)Nc2ccccc2S1(=O)=O (centres undefined)
TGI: 46.1 µM

COc1ccc2c(c1)/c(=C/c1ccc(N(C)C)cc1)c1cc(-c3ccccc3)[n+](C)n12
GI50: 0.353 µM
TGI: 4.43 µM and 1.92 µM

O=C1C2Cc3ccccc3CN2C(=O)N1CCN1CCCC1 (centres undefined)
TGI: > 100 µM

COc1cc2c(cc1OC)-c1c3c(cc4c1[C@@H](C2)N(C)CC4)OCO3
TGI: 22.9 µM

COc1c(C)c(OC)c2c(c1O)[C@@H]1[C@@H]3Cc4c(OC)c(C)c(OC)c(O)c4[C@H](CNC(=O)c4cnc5ccccc5n4)N3[C@@H](C#N)[C@H](C2)N1C
TGI: 0.0325 µM

CCCCCCN(CCCCCC)CC(O)c1ccc2c3c(cccc13)CC2 (centres undefined)
GI50: 7.97 µM
TGI: 24.2 µM

COC(=O)C1(Cc2ccccc2)Cc2ccccc2C1
TGI: > 100 µM

Clc1ccc(N=c2oc3ccccc3cc2-c2nc3ccccc3[nH]2)c(Cl)c1
TGI: > 100 µM

C=C(C)C1CC=C(C)C2(C1)OCC(C)(C)C(C)O2 (centres undefined)
TGI: 57.9 µM

COc1ccccc1Nc1nc(NNC(=O)Cc2ccccc2)nc(NNC(=O)c2ccncc2)n1
TGI: > 10 µM

COc1cc(/C=N/Nc2nnc3c4ccccc4c4ncccc4c3n2)cc(OC)c1OC
TGI: > 10 µM

CSc1c(C#N)c2n(c3ccccc13)c1ccccc1[n+]2C
TGI: > 100 µM

CCOC(=O)COS(=O)(=O)C(F)(F)F
TGI: > 100 µM

CN(Cc1cnc2nc(N)nc(N)c2n1)c1ccc(C(=O)NC(CCC(=O)NC(P(=O)(O)O)P(=O)(O)O)C(=O)O)cc1 (centres undefined)
TGI: > 100 µM

Cc1c2ccc(N(C)c3ccnc(Nc4cccc(S(N)(=O)=O)c4)n3)cc2nn1C
GI50: 13.3 µM
TGI: > 25 µM

O=C1Nc2cccc3cc(NCC(O)CCl)cc1c23 (centres undefined)
TGI: > 100 µM

COc1ccc2c(c1)[n+]([O-])c(/C(C)=N/NC(=O)CC#N)c[n+]2[O-]
TGI: > 100 µM

COc1ccc(/C=C2\C(=O)N(C(=O)Cc3ccccc3)N=C2C)cc1OC
TGI: > 100 µM

Cc1cc2c(=O)c3ccccc3[nH]c2c(C(=O)O)c1C
TGI: > 100 µM

c1ccc2c(c1)nc1n2CCSC1
TGI: > 100 µM

C=C(C=O)CCCC(C)[C@@H]1CCC23CC12CCC1[C@@]2(C)CCC(OC(C)=O)C(C)(C)C2CC(OC2OC(COC(C)=O)C(O)C(O)C2O)[C@]13C (some centres undefined)
TGI: 13.8 µM

C[n+]1c2ccccc2c(C(=O)Nc2ccc(S(=O)(=O)N=C(N)N)cc2)c2ccccc21
TGI: > 100 µM

O=C(CNc1ccc(Cl)cc1Cl)NC1C=Cc2ccc(S(=O)(=O)Nc3ccc(Cl)cc3Cl)cc2C1=O (centres undefined)
TGI: > 100 µM

O=C1NC2(CN3CCC2CC3)C(=O)N1CN(Cc1ccccc1)c1ccccc1 (centres undefined)
TGI: > 100 µM

CC1CCN(CC(=O)N2c3ccccc3Sc3cc4ccccc4cc32)CC1
TGI: > 100 µM

C[C@]12CC[C@@H]3c4ccc(O)cc4C(O)C[C@H]3[C@@H]1CCC2=O (some centres undefined)
GI50: > 100 µM
TGI: > 100 µM

CCN(CC)c1ccc2c(c1)Nc1cc(=C(C#N)C#N)c3ccccc3c1=N2
TGI: > 100 µM

O=c1[nH]c(Nc2cccc(Cl)c2)nc2nc[nH]c12
TGI: > 100 µM

Cc1cc(=O)oc2cc(O)ccc12
TGI: > 100 µM

CCOc1ccccc1NC(=O)CCc1nc(=S)[nH][nH]1
TGI: > 100 µM

COc1ccc(OC)c2c1C1CCC(=O)N1CN2C(C)=O (centres undefined)
TGI: > 100 µM

O=c1[nH]nc(Cc2ccccc2)n1-n1cnnc1
TGI: > 100 µM

COc1cc(/C=C2\CCC(C)C3=C2NC(=S)NC3c2cc(OC)c(OC)c(OC)c2)cc(OC)c1OC (centres undefined)
TGI: > 100 µM

CN(C)CCCOCCn1c2c(c3ccccc31)CCCC2
TGI: > 100 µM

O=C(NCc1ccc(Cl)cc1)c1cc2sccc2nc1C(F)(F)F
TGI: > 100 µM

Cc1sc2ccccc2[n+]1CCC(=O)O
TGI: > 100 µM

C=CC[C@@]1(C(=O)OC)[C@H](Sc2ccccc2)C1(C)C
TGI: > 100 µM

[N-]=[N+]=Nc1ccc(CNc2cc(=O)[nH]c(=O)[nH]2)cc1
TGI: > 100 µM

C/C(=N\NC(N)=S)c1nc2ccc(Cl)cc2[nH]1
GI50: 1.29 µM
TGI: 14.5 µM

C#CCn1c(=O)c(C#N)c(O)c2cc3ccccc3nc21
TGI: > 31.6 µM

Cc1ccc(C(=O)/C(C#N)=C/Nc2c(C)n(C)n(-c3ccccc3)c2=O)cc1
TGI: > 100 µM

NNc1nncn1N
TGI: > 100 µM

O=C1/C(=C2\Sc3c(ccc(Cl)c3Cl)C2=O)Sc2c1ccc(Cl)c2Cl
TGI: > 100 µM

O=C1c2ccccc2-n2c1nc1ccccc1c2=O
TGI: 30.4 µM

C=C1C(=O)OC2/C=C(\C=O)CC/C=C(\C)C(O)C[C@@H]12 (some centres undefined)
TGI: 29.6 µM

Cc1ccc(S(=O)(=O)N=Nc2c(O)[nH]c3c(Cl)cc(Cl)cc23)cc1
TGI: > 100 µM

COc1ccc(C(=O)N2c3ccccc3Sc3ccccc32)c(C(F)(F)F)c1
GI50: 18.2 µM
TGI: > 100 µM
